# Out of some 310,000 compounds screened, about 2,200 (0.71%) showed an effect of 50% or more. The effect is printed as a negative number. Some of the results follow.
# Target: human ether-à-go-go-related gene (hERG) potassium channel (human, UniProt Q12809)
# Test: primary screen, population patch clamp on CHO cells stably expressing hERG
# Sequence of human ether-à-go-go-related gene (hERG) potassium channel (Q12809 whole entry, looked up): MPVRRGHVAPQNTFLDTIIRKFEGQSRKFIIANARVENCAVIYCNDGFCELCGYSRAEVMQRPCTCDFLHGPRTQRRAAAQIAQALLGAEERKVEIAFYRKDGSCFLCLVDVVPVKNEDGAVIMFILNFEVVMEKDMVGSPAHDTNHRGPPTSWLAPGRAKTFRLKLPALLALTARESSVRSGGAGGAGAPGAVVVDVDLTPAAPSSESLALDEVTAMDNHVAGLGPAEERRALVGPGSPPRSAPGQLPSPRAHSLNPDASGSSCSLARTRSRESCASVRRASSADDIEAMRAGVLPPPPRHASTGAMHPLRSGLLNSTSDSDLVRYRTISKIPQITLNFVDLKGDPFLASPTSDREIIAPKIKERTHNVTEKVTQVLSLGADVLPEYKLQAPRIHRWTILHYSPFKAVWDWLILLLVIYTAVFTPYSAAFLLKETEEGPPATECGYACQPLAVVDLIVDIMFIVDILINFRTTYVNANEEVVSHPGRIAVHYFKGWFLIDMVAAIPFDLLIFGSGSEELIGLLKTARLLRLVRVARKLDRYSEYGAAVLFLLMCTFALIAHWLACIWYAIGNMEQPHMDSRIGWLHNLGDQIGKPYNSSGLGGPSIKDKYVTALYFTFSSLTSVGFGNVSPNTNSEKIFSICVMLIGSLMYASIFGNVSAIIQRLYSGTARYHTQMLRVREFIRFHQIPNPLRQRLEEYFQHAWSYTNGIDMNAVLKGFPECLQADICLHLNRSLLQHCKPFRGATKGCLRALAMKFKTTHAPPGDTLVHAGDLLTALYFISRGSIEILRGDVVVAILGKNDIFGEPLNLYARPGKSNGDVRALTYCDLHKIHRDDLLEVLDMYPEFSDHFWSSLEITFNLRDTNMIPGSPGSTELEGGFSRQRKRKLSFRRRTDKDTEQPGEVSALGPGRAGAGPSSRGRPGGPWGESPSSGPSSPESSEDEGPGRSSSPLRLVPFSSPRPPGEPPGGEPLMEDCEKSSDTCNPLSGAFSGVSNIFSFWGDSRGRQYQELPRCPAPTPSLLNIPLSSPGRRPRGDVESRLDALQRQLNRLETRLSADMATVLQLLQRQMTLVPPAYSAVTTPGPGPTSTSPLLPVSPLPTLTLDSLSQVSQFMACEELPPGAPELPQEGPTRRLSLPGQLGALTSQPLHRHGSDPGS
row,Structure (SMILES),"hERG current change (%, negative = inhibition) at 1uM [%]"
1,CCCN(CCC)CCCNC(=O)CC(C(=O)N1CCc2ccccc21)n1ccnc1 (stereo not drawn),-0.353
2,c1ccc(C2[C@H]3CN(Cc4cccnc4)[C@H](c4ccccc4)C34CC2(c2cccnc2)C4)cc1 (stereo partly drawn),6.83
3,CSc1ccccc1C(=O)NCCSC(C)(C)C,6.9
4,COc1ccc(/C=C2\Oc3cc(OCC(N)=O)ccc3C2=O)cc1OC,12.5
5,CC(=O)c1c(C)[nH]c(C(=O)N(C)CC(=O)Nc2ccc(Cl)c(C(F)(F)F)c2)c1C,10.8
6,CCC(=O)Nc1c(S(=O)(=O)c2ccccc2)c2nc3ccccc3nc2n1Cc1ccccc1,5.26
7,CCCN1C(=O)c2cc(C(=O)NC3CCCC3)ccc2C1O (stereo not drawn),2.09
8,Cc1c(NC(=O)c2ccccc2NC(=O)c2ccccc2)cccc1C(=O)O,14.6
9,COc1ccc(-n2nnc3c(=O)n(CC(=O)N4CCCCC4)cnc32)cc1,11.1
10,Cc1nc(-c2cccc(NC(=O)c3cc4cc(Br)ccc4oc3=O)c2)cs1,2.79
11,O=C(C(c1ccccc1)c1ccccc1)N1CCN(Cc2ccncc2)CC1,-7.91
12,CCCOn1c(OCC(C)C)nc2ccccc2c1=O,12.5
13,CC1=Nc2ccccc2/C1=C\c1sc(Nc2ccc(C)cc2)nc1O,-2.35
14,Cc1cccc(OCC(=O)N(C)CCc2ccccn2)c1,8.5
15,O=C(c1cccc(S(=O)(=O)N2CCOCC2)c1)N(Cc1nnc(-c2ccccc2Cl)o1)C1CC1,9.18
16,CCOc1ccc(NS(=O)(=O)c2ccc(NC(=O)c3ccccn3)cc2)cc1,15.2
17,NS(=O)(=O)c1ccc(CCNC(=O)CCc2nc3ccccc3s2)cc1,15.9
18,Cc1ccc(NC(=O)C2C3CCCC2C3c2ccccc2)cc1C (stereo not drawn),3.15
19,O=C1C2C3C=CC(C3)C2C(=O)N1c1ncn[nH]1 (stereo not drawn),10.6
20,FC(F)(F)c1nc2ccccc2n2c(-c3ccc(Cl)cc3)nnc12,4.99
21,Cc1nnc(NC(=O)CSc2ncc(-c3ccccc3)[nH]2)s1,9.66
22,CCc1cc(C(=O)N2CCCC(CO)(Cc3ccc(F)cc3)C2)n(C)n1 (stereo not drawn),5.89
23,CC(=O)c1[nH]c(C)c(C(=O)N2CCCC(Nc3cccc(F)c3)C2)c1C (stereo not drawn),18.1

row,Structure (SMILES),"hERG current change (%, negative = inhibition) at 1uM [%]"
1,Cc1ccc(S(=O)(=O)N2CCN(CCNC(=O)C(=O)Nc3ccc(F)cc3)CC2)cc1,9.47
2,O=C(CSc1n[nH]c(=O)[nH]c1=O)NC1CCCCC1,17.2
3,CCCCn1c(N)c(N(CCOC)C(=O)c2cc(-c3ccc(F)cc3)nc3ccccc23)c(=O)[nH]c1=O,12.7
4,CC(C)c1nc2cc(C(=O)N3CCNC(=O)C3c3cccc(F)c3)ccc2o1 (stereo not drawn),18
5,Cc1ccc(S(=O)(=O)N2CCN(C(=O)CSc3nnc(-c4ccco4)o3)CC2)cc1,13.1
6,COc1cc(C(=O)c2ccccc2Cl)c([N+](=O)[O-])cc1OC,-2.27
7,CC(NC(=O)CSc1nc2ccccc2c(=O)n1CCCO)c1ccccc1 (stereo not drawn),-0.931
8,CC(=O)C1=C(O)CCC1=N,2.44
9,CCn1c(O)c(C2=c3ccccc3=NC2=O)c2cc(Br)ccc21,10.2
10,COc1ccc(CNCCCSc2ncccn2)c(OC)c1.Cl,10.4
11,COc1cccc(OCCn2cc(/C=N/NC(=O)c3ccncc3)c3ccccc32)c1,14.3
12,CCOC(=O)c1cc(NC(=O)Nc2nc3ccccc3s2)c(C)nc1C,4.34
13,CC(C)(C)OC(=O)NCc1ccc(CNC(=O)c2nc[nH]c2C(=O)N2CCN(c3ccccc3)CC2)cc1,7.53
14,COc1ccc(C2C(C(=O)NCCCN3CCOCC3)c3ccccc3C(=O)N2c2ccc(OC)cc2)cc1 (stereo not drawn),2.89
15,Cc1cc(NC(=O)CCl)n(-c2nc3ccccc3s2)n1,11.5
16,O=C1CN(C(=O)c2ccco2)C(c2ccccc2)c2cc(Cl)ccc2N1 (stereo not drawn),1.13
17,CCOc1ccc(-n2cnnn2)cc1S(=O)(=O)Nc1c(C)cccc1C,4.82
18,Cc1ccc2nc(NC(=O)COC(=O)c3ccncc3)sc2c1,-2.37
19,CC(=O)Nc1ccc(NC(=O)CC23CC4CC(CC(C4)C2)C3)cc1,20.5
20,Cc1ccc(-n2c(O)c(/C=N/NC(=O)c3ccncc3)c(=O)[nH]c2=O)cc1C,13.3
21,CCOC(=O)C(=CNc1ncccc1C)C(=O)OCC,13.2
22,Cc1n[nH]c(C)c1CCC(=O)N/N=C/c1c[nH]c2ccccc12,-5.75

# Source: PMC4336329 (PLoS ONE, 2015)
